# According to publication PMC4336329 (PLoS ONE, 2015):
# In all, about 310,000 compounds went through this assay and about 2,200 (0.71%) showed an effect of 50% or more. The effect is printed as a negative number. This is one part of the list.
# Biological target: human ether-à-go-go-related gene (hERG) potassium channel (human, UniProt Q12809)
# Assay: primary screen, population patch clamp on CHO cells stably expressing hERG
# Sequence of human ether-à-go-go-related gene (hERG) potassium channel (Q12809 whole entry, looked up): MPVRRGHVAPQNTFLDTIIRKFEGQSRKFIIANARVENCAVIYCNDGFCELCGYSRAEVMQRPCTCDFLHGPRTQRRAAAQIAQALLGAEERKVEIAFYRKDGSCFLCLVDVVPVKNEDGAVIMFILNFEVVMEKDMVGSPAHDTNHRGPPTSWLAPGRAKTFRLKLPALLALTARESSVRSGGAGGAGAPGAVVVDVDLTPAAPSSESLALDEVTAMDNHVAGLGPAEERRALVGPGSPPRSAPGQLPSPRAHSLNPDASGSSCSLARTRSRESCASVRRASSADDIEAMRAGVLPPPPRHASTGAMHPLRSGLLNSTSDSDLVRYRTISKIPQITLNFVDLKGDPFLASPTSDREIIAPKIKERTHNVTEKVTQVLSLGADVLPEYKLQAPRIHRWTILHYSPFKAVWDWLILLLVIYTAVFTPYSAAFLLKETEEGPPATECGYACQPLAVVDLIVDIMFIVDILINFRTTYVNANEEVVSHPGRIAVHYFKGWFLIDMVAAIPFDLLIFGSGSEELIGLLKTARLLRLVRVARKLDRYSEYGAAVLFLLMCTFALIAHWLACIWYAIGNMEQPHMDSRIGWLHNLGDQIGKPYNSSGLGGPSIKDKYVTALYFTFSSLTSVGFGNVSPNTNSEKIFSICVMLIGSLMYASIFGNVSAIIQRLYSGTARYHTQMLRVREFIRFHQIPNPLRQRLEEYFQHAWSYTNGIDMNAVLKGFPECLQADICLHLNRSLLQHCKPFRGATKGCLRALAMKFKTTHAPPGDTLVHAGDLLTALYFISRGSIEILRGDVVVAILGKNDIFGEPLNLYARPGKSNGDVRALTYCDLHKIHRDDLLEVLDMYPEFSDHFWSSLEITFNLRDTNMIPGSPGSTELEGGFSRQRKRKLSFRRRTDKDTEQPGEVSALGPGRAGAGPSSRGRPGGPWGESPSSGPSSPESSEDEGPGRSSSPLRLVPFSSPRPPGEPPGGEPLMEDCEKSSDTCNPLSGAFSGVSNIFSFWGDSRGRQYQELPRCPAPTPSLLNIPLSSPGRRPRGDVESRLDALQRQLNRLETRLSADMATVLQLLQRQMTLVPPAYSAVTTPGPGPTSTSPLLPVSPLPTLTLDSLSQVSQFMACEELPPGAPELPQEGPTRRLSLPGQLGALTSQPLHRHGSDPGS
row,SMILES,"hERG current change (%, negative = inhibition) at 1uM"
1,O=C1CCN(C(=O)c2ccccc2)C2CCCCC12 (centres unmarked),6.67%
2,COc1cccc(CN2CCC(C(=O)N3CCN(Cc4ccc5c(c4)OCO5)CC3)CC2)c1,4.46%
3,C[C@H](NC(=O)N1CCn2c1nc1ccccc12)C(=O)NCc1ccc2c(c1)OCO2,-3.38%
4,Cc1cc(NC(=O)CSc2nc3ccccc3cc2C#N)no1,7.38%
5,CC(=O)NCCc1ccc(C(=O)CSc2nnc(C3CC3)n2C2CC2)cc1,25.9%
6,COC(=O)c1ccc(Cn2nnc3c(=O)[nH]c(C4CCCN(S(=O)(=O)c5cccc(Cl)c5)C4)nc32)cc1 (centres unmarked),8.83%
7,Cc1c(Br)c([N+](=O)[O-])nn1CC(=O)N1CCN(C23CC4CC(CC(C4)C2)C3)CC1,2.63%
8,CC(=O)NC(=S)Nc1cccc2ccc(C)nc12,9.62%
9,Cc1cc(NC(=O)CSc2nnc3c4c(C)c(C)sc4ncn23)no1,1.57%
10,Cc1ccc(CN2C(=O)c3ccccc3NC2c2cc(Br)ccc2O)cc1 (centres unmarked),8.02%
11,CN(CC(=O)Nc1ccccc1C(F)(F)F)C(=O)C1CCN(C(=O)c2ccc(Cl)cc2)CC1,2.31%
12,CNS(=O)(=O)c1cc(C(=O)NCc2ccco2)ccc1Cl,6.43%
13,CC(=O)Nc1ccc([N+](=O)[O-])c(CS(=O)(=O)c2ccc(C)cc2)c1[N+](=O)[O-],-1.64%
14,Cc1ccc(NC(=O)CSc2ccccc2NC(=O)c2cccc(Cl)c2)cc1Cl,0.293%
15,c1cnc2ccc(C(c3nnnn3C3CCCCC3)N3CCN(C4CCCCC4)CC3)cc2c1 (centres unmarked),-87%
16,COc1cc(OC)c(OC)cc1/C=N/NC(=O)C[n+]1ccccc1.[Cl-],-2.3%
17,CSc1nnc(COc2ccc(C)cc2)n1N,17.2%
18,CC(C)N(Cc1ccccc1)C(=O)c1cccs1,16.1%
19,CCN(CC(=O)Nc1c(F)cccc1F)C(=O)c1cnccn1,6.4%
20,Cc1ccc(Cl)cc1Nc1nc(-c2sc(NC(=O)c3ccccc3)nc2C)cs1,5.57%
21,COc1cccc(NC(=O)C(=O)N/N=C(\C)CC(=O)Nc2ccc(NC(C)=O)cc2)c1,19.6%
22,Cl.c1ccc(CC2=NCCN2)cc1,14.8%
23,COc1ccc(N(C)S(=O)(=O)c2cccc(C(=O)OCC(=O)Nc3sc4c(c3C#N)CCCCC4)c2)cc1,7.01%
